From PubChem BioAssay AID504832 (National Center for Advancing Translational Sciences (NCATS), 2011)
Out of some 310,000 compounds screened, about 18,000 (5.8%) were called active. Inconclusive means that the source gave no clear call. Such entries were picked first, then a sample of the others. Calls follow the shape of the dose curve; as a rule, active = well fitted inhibition curve with a large enough effect; inconclusive = small, poorly fitted or top-dose-only effect, or another doubt; inactive = no such curve, though single readings can be large or run the other way. No potency is given beside an inconclusive call; the fits are too rough.

Test: Primary qHTS for delayed death inhibitors of the malarial parasite plastid, 48 hour incubation
Details: P. falciparum luciferase growth in erythrocytes; series mostly up to 28.7 µM
In short: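 Luminescence readout; reporter = integrated firefly luciferase in P. falciparum. RBC culture at 2% hematocrit, 0.1% parasitemia final, 37 C/5% CO2; decreased signal taken as growth inhibition.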
Potency is read from the fitted curve at half-maximal effect; tags tell the direction and shape of the fitted curve.

Structure (SMILES)	Potency
Cn1cc(Br)c(-c2cccc(N3C(=O)CCCC3=O)c2)n1	inactive
Cc1cc(=O)[nH]c(N/N=C/c2cc(C)n(CC(F)(F)F)c2C)n1	inconclusive [inhibitor, full curve]
O=C(Nc1cccc(O)c1)C1CC(c2ccc(Cl)cc2)=NO1 (stereo not drawn)	inactive
COc1ccc(Cl)cc1S(=O)(=O)N1CCC(C(=O)NCC2CCCO2)CC1 (stereo not drawn)	inconclusive [inhibitor, full curve, poor fit]
Cc1ccc(NC(=O)COc2coc(CN3CCc4ccccc43)cc2=O)c(C)c1	inconclusive [inhibitor, single point]
Cc1cccc(NC(=S)NC2CC3CCCC(C2)N3Cc2ccccc2)c1C (stereo not drawn)	active: 5.86 µM
CC(=O)Nc1ccc(CN2CCc3c([nH]c4ccccc34)C2c2ccccn2)cc1 (stereo not drawn)	inconclusive [inhibitor, partial curve]
COc1ccccc1NC(=S)N(Cc1ccco1)Cc1cc2cc(C)cc(C)c2[nH]c1=O	active: 3.29 µM
Cc1ccc(N2CCN(S(=O)(=O)c3ccc(Cl)s3)CC2C)cc1 (stereo not drawn)	inconclusive [inhibitor, partial curve]
CCCCOc1ccccc1C1C(C(=O)OC)=C(C)N(C)C(C)=C1C(=O)OC	active: 13.1 µM
CC1CCN(c2ccccc2NC(=S)NC(=O)C(C)(C)C)CC1	inconclusive [inhibitor, partial curve, poor fit]
ClCc1csc(N/N=C/c2cccs2)n1	inactive
O=C(NCCC1CCCCN1S(=O)(=O)c1ccc(Cl)cc1)C(=O)NCCN1CCOCC1 (stereo not drawn)	inconclusive [inhibitor, single point]
COC(=O)Cn1c2ccccc2c2nc(=O)cc(C)n21	inactive
Cc1ccccc1C(=O)N1CCN(c2ccc(NC(=O)c3ccc4c(c3)OCCO4)cc2)CC1	inconclusive [inhibitor, partial curve]
COCCCn1c(=O)c2ccccc2n(CC(=O)Nc2ccc3c(c2)OCCO3)c1=O	inconclusive [inhibitor, full curve]
COc1ccc2nc(Nc3nc(C)c(CCC(C)C)c(=O)[nH]3)nc(C)c2c1	inconclusive [inhibitor, full curve, poor fit]
O=C(NNc1cc(N2CCOCC2)nc(N2CCOCC2)n1)c1ccc([N+](=O)[O-])cc1	inconclusive [inhibitor, single point]
COc1ccc(OC)c(N2CC(O)(c3cccs3)[N+]3=C2SCCC3)c1 (stereo not drawn)	inconclusive [inhibitor, single point]
O=C(NC(Cc1c[nH]c2ccccc12)C(=O)N/N=C/c1ccc(Cl)cc1)c1cccs1 (stereo not drawn)	inconclusive [inhibitor, single point]
O=C(COc1ccc(Br)cc1CO)N1CCCc2ccccc21	inconclusive [inhibitor, single point]
Cc1ccc(S(=O)(=O)N2CCC(C(=O)N3CCN(c4ccccn4)CC3)CC2)cc1	inconclusive [inhibitor, partial curve, poor fit]
Fc1ccc2c(c1)C(c1ccncc1)=NNC(c1ccccc1)=N2	inconclusive [inhibitor, single point]

Structure (SMILES)	Potency
Cc1ccccc1NC(=O)Cn1c(=O)oc2ccccc21	inactive
COc1cc(/C=C(/C#N)c2nc(-c3cc4ccccc4oc3=O)cs2)cc([N+](=O)[O-])c1O	active: 2.33 µM
CCOC(=O)c1c(-c2ccccc2)csc1NC(=O)c1ccc(S(=O)(=O)N2CC(C)OC(C)C2)cc1 (stereo not drawn)	active: 10.4 µM
COc1ccc(OC)c(N(CC(=O)NCCSC2CCCCC2)S(=O)(=O)c2ccccc2)c1	inconclusive [inhibitor, partial curve]
O=C(NCc1ccccn1)c1ccc(Cl)c(NC2=NC3CS(=O)(=O)CC3S2)c1 (stereo not drawn)	inactive
O=C(C1CCCCC1)N1CCCC(c2nc3c(nnn3Cc3ccccc3)c(=O)[nH]2)C1 (stereo not drawn)	inconclusive [inhibitor, partial curve]
CC[n+]1ccc(/C=C/c2c[nH]c3ccccc23)cc1	active: 0.522 µM
O=C(CN(Cc1ccc(Br)cc1)S(=O)(=O)c1ccccc1)NCC1CCCO1 (stereo not drawn)	inconclusive [inhibitor, partial curve, poor fit]
COc1cc(NC(=O)COc2ccc(C)c(C)c2)ccc1NC(=O)c1ccco1	active: 7.38 µM
C=C(C)C(=O)Nc1cccc(C2=NOC3(C2)C[C@@H](C(N)=O)N(C(=O)C2(C)CC2)C3)c1 (stereo partly drawn)	inactive
COC(=O)c1cc(C)nc2c1c(C)nn2-c1ccccc1	inactive
CCc1ccc(NS(=O)(=O)c2c(C)nc3sc(CC)nn3c2=O)cc1	inconclusive [inhibitor, partial curve, poor fit]
O=C(O)c1ccc(NS(=O)(=O)c2ccc3c(c2)C(=O)c2ccccc2C3=O)cc1	inconclusive [inhibitor, single point]
CC1(C)CC(=O)C(C2C3=C(CC(C)(C)CC3=O)Oc3ccc4ccccc4c32)C(=O)C1 (stereo not drawn)	inconclusive [inhibitor, single point]
CCOC(=O)C1=C(CNCCOc2ccc(OC)cc2)NC(=O)NC1c1ccc2c(c1)OCO2 (stereo not drawn)	active: 11.7 µM
COC(=O)CCC(C)N1CCC(Oc2ccc(C(=O)NCc3ccccn3)cc2)CC1 (stereo not drawn)	inactive
O=C(c1cccc(NS(=O)(=O)c2ccc(F)c(F)c2)c1)N1CCN(C(c2ccccc2)c2ccccc2)CC1	active: 13.1 µM
Cc1ccc(-n2nc3c(Cl)nnc(C)c3c2C)cc1	active: 0.415 µM
CCOc1ccccc1NC(=O)C1C2CCC3C(CCC21)C3(Cl)Cl (stereo not drawn)	inconclusive [inhibitor, partial curve, poor fit]
Cc1onc(-c2ccccc2)c1C(=O)Nc1ccccc1NC(=O)c1c(-c2ccccc2)noc1C	inconclusive [inhibitor, full curve, poor fit]
Cc1ccc(NC(=O)c2cnc(N3CCN(c4ccccn4)CC3)c3ccccc23)c(Br)c1	inconclusive [inhibitor, single point]
CCOC(=O)c1c(C)n(CC(O)CN(CC)CC)c2cc(Br)c(OC)cc12 (stereo not drawn)	inconclusive [inhibitor, partial curve]
COc1ccc(-c2noc(-c3ccccc3C(=O)Nc3cccc(OC)c3)n2)cc1	inconclusive [inhibitor, single point]

Structure (SMILES)	Potency
O=C(NCCN1CCN(c2ccccc2)CC1)Nc1cccc(Cl)c1	inactive
COC(=O)CCCC1=CC2=CC(=O)C(C)(OC(=O)c3cccs3)C(=O)C2=CN1C1CCCC1 (stereo not drawn)	inconclusive [inhibitor, single point]
O=C(Nc1ccn([C@H]2CC[C@@H](CO)O2)c(=O)n1)c1ccccc1	inactive
COc1ccc(C(=O)NCCN2CCCC2)cc1[N+](=O)[O-]	inconclusive [inhibitor, single point]
O=C(Oc1ccc(OC(=O)N2CCOCC2)cc1)c1ccccc1	inactive
CC(=O)Nc1nc(-c2ccccc2)nc(-c2ccccc2OC(C)=O)n1	inconclusive [inhibitor, single point]
CCOC(=O)c1sc2nc(CSc3ccccc3)nc(N3CCCN(C)CC3)c2c1C	inconclusive [inhibitor, single point]
O=C(Nc1ccccc1F)C1COc2ccccc2O1 (stereo not drawn)	inactive
Cc1ccc(-c2nn(-c3ccccc3)cc2/C=C(\C#N)c2cccc(C#N)c2)o1	active: 11.7 µM
COC(=O)C(NC(=O)c1ccco1)(Nc1nc(C2CC2)cs1)C(F)(F)F (stereo not drawn)	inconclusive [inhibitor, single point]
O=C(c1cc[n+]([O-])cc1)N1CCCC(N2CCN(c3cccc(C(F)(F)F)c3)CC2)C1 (stereo not drawn)	active: 11.7 µM
Cc1ccc(-c2csc(=Nc3cccnc3)n2CCCn2ccnc2)cc1C	active: 10.4 µM
Cc1ccc(C)c(CN2CCC(CNC(=O)Nc3ccc(F)c(Cl)c3)CC2)c1	inconclusive [inhibitor, partial curve, poor fit]
CCOC(=O)N1CCN(C(=O)C2CCCN(S(=O)(=O)c3ccc(OCC)cc3)C2)CC1 (stereo not drawn)	inconclusive [inhibitor, partial curve, poor fit]
COc1ccc(-n2nc3cc(C)c(NC(=S)NC(=O)c4ccccc4C)cc3n2)cc1	inactive
CCOC(=O)CSc1nc2cc(C(=O)NCC3CCCO3)ccc2c(=O)n1Cc1ccco1 (stereo not drawn)	inconclusive [inhibitor, full curve, poor fit]
CCc1nnc(NC(=O)CCC(=O)N2CCN(Cc3ccc(F)cc3)CC2)s1	inactive
Cc1ccc(O)c(C2=NNC(O)(C(F)(F)F)C2)c1 (stereo not drawn)	active: 13.1 µM
COc1ccc(-c2onc(C)c2-c2cnn(-c3ccccc3)c2)c(O)c1C	inconclusive [inhibitor, single point]
O=C(COc1ccc(Cl)cc1)Nc1ccc2oc(-c3ccncc3)nc2c1	inconclusive [inhibitor, single point]
CC1CCCCC1NC(=O)CCCn1c(=S)[nH]c2ccccc2c1=O (stereo not drawn)	inconclusive [inhibitor, partial curve, poor fit]
CCOc1cccc(N(C(=O)Cc2cccs2)C(C(=O)NC2CCCCC2)c2cccn2C)c1 (stereo not drawn)	inconclusive [inhibitor, partial curve, poor fit]
